The supplement of paper PMC4604168 (melanoma cell lines)
The other results are listed elsewhere or left out. Single values are uncertain, as repeats are few or missing.

Test system: MZ2-MEL
Experiment: cell count relative to DMSO control; melanoma cells; higher = more viable cells
Details: library dose: low library concentration; 72 h
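Further: cell number obtained by counting DAPI-stained nuclei in high-throughput microscope images with image analysis software, screen run in 1,536-well plates.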

Compound | cell count [%]
C[C@]12O[C@H](C[C@]1(O)CO)n1c3ccccc3c3c4c(c5c6ccccc6n2c5c31)CNC4=O [Lestaurtinib] + CN1CCN(c2ccc3nc(-c4c(N)c5c(F)cccc5[nH]c4=O)[nH]c3c2)CC1 [Dovitinib] (first compound 0.004 µM, partner dose 0.1 µM) | 103
C[C@]12O[C@H](C[C@]1(O)CO)n1c3ccccc3c3c4c(c5c6ccccc6n2c5c31)CNC4=O [Lestaurtinib] + CCCCCCCCc1ccc(CCC(N)(CO)CO)cc1 [fingolimod] (first compound 0.004 µM, partner dose 2 µM) | 101
C[C@]12O[C@H](C[C@]1(O)CO)n1c3ccccc3c3c4c(c5c6ccccc6n2c5c31)CNC4=O [Lestaurtinib] + CNC(=O)c1cc(Oc2ccc(NC(=O)Nc3ccc(Cl)c(C(F)(F)F)c3)cc2)ccn1 [sorafenib] (first compound 0.004 µM, partner dose 0.4 µM) | 85.9
N.N.[Cl][Pt][Cl] [cisplatin] + CO[C@H]1C[C@@H]2CC[C@@H](C)[C@@](O)(O2)C(=O)C(=O)N2CCCC[C@H]2C(=O)O[C@H]([C@H](C)C[C@@H]2CC[C@@H](OCCO)[C@H](OC)C2)CC(=O)[C@H](C)/C=C(\C)[C@@H](O)[C@@H](OC)C(=O)[C@H](C)C[C@H](C)/C=C/C=C/C=C/1C [everolimus] (first compound 1.6 µM, partner dose 0.02 µM) | 79.1
C[C@]12O[C@H](C[C@]1(O)CO)n1c3ccccc3c3c4c(c5c6ccccc6n2c5c31)CNC4=O [Lestaurtinib] + C=CCNC1=C2C[C@@H](C)C[C@H](OC)[C@H](O)[C@@H](C)/C=C(\C)[C@H](OC(N)=O)[C@@H](OC)/C=C\C=C(/C)C(=O)NC(=CC1=O)C2=O [Tanespimycin] (first compound 0.004 µM, partner dose 0.002 µM) | 108
C[C@]12O[C@H](C[C@]1(O)CO)n1c3ccccc3c3c4c(c5c6ccccc6n2c5c31)CNC4=O [Lestaurtinib] + COc1ccc(Cl)c(Nc2nc3ccccc3nc2NS(=O)(=O)c2cccc(NC(=O)C(C)(C)N)c2)c1 [XL147] (first compound 0.004 µM, partner dose 0.8 µM) | 91.7
C[C@]12O[C@H](C[C@]1(O)CO)n1c3ccccc3c3c4c(c5c6ccccc6n2c5c31)CNC4=O [Lestaurtinib] + CCN(CC)CCNC(=O)c1c(C)[nH]c(/C=C2\C(=O)Nc3ccc(F)cc32)c1C [sunitinib] (first compound 0.004 µM, partner dose 0.4 µM) | 106
C[C@]12O[C@H](C[C@]1(O)CO)n1c3ccccc3c3c4c(c5c6ccccc6n2c5c31)CNC4=O [Lestaurtinib] + CS(=O)(=O)c1ccc(C(=O)Nc2ccc(Cl)c(-c3ccccn3)c2)c(Cl)c1 [vismodegib] (first compound 0.004 µM, partner dose 1 µM) | 100
C[C@]12O[C@H](C[C@]1(O)CO)n1c3ccccc3c3c4c(c5c6ccccc6n2c5c31)CNC4=O [Lestaurtinib] + CC(=O)c1c(C)c2cnc(Nc3ccc(N4CCNCC4)cn3)nc2n(C2CCCC2)c1=O [palbociclib] (first compound 0.004 µM, partner dose 0.04 µM) | 85.3
C[C@]12O[C@H](C[C@]1(O)CO)n1c3ccccc3c3c4c(c5c6ccccc6n2c5c31)CNC4=O [Lestaurtinib] + Nc1nc(F)nc2c1ncn2[C@@H]1O[C@H](CO)[C@@H](O)[C@@H]1O [fludarabine] (first compound 0.004 µM, partner dose 0.2 µM) | 110
Cn1cc(C2=C(c3cn(C4CCN(Cc5ccccn5)CC4)c4ccccc34)C(=O)NC2=O)c2ccccc21 [Enzastaurin] + C[C@]12O[C@H](C[C@]1(O)CO)n1c3ccccc3c3c4c(c5c6ccccc6n2c5c31)CNC4=O [Lestaurtinib] (first compound 0.8 µM, partner dose 0.004 µM) | 88.5
C[C@]12O[C@H](C[C@]1(O)CO)n1c3ccccc3c3c4c(c5c6ccccc6n2c5c31)CNC4=O [Lestaurtinib] + CS(=O)(=O)CCNCc1ccc(-c2ccc3ncnc(Nc4ccc(OCc5cccc(F)c5)c(Cl)c4)c3c2)o1 [lapatinib] (first compound 0.004 µM, partner dose 0.8 µM) | 94.8
